Molecular target: wild type eIF6 (eIF6^WT), purified
Assay: SPR

Kd: 1160 nM
Substance: p38α, purified (a stretch of the chain, letters omitted) (enzyme; other documents disagree on this pair)
